Consider seven substances from PMC6908695.

Chains of the proteins cited; added tags and fusions are not shown. Lines headed by an entry give the natural chain unless they say otherwise; changes in a name come on top. Residues count along the entry.
UniProt Q96NY8: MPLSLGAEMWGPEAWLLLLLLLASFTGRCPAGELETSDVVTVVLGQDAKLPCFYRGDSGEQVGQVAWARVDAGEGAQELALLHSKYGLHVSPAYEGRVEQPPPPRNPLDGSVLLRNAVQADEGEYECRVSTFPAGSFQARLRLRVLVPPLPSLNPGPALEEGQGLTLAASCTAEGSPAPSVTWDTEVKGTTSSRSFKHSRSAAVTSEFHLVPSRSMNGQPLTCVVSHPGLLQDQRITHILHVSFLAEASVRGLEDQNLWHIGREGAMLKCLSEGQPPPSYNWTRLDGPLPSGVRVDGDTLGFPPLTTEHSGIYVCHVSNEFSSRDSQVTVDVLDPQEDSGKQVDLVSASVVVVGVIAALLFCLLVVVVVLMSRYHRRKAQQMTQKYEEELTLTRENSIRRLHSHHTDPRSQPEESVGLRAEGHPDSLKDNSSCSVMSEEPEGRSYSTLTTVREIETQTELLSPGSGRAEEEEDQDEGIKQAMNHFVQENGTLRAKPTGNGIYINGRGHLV
UniProt P21860, residues 20-1342: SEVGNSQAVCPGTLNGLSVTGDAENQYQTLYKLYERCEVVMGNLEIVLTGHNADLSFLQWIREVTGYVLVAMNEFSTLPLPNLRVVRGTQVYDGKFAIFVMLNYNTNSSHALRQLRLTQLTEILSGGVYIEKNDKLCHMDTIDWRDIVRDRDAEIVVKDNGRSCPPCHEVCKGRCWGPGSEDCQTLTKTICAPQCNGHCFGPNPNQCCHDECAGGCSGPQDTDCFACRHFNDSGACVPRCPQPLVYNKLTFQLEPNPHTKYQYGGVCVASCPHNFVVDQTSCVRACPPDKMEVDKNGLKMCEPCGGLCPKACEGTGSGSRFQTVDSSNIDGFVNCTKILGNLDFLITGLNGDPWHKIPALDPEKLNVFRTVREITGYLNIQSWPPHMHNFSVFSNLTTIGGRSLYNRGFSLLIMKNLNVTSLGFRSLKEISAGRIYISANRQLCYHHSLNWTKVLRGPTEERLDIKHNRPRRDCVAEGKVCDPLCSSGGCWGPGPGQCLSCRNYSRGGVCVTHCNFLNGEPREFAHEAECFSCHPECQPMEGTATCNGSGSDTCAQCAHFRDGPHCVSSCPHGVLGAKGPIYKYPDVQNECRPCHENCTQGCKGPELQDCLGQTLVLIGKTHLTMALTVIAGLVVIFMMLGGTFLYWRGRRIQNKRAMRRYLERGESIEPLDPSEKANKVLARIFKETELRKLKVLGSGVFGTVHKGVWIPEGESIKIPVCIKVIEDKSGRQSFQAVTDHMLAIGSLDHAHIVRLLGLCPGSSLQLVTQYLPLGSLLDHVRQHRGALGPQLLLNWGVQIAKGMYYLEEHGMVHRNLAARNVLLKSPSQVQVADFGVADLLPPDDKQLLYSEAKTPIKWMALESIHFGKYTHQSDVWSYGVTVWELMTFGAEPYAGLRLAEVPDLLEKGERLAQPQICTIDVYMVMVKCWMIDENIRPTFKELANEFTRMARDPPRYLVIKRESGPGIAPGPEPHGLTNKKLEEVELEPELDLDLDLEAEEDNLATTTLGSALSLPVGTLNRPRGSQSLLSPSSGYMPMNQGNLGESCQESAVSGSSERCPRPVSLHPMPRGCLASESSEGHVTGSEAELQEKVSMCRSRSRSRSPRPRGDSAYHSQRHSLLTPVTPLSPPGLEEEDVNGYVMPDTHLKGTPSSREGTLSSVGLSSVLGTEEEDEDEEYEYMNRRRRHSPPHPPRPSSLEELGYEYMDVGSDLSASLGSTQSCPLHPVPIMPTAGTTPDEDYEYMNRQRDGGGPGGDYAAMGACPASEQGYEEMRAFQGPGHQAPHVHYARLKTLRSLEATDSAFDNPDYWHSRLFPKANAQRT
UniProt Q15303, residues 26-1308: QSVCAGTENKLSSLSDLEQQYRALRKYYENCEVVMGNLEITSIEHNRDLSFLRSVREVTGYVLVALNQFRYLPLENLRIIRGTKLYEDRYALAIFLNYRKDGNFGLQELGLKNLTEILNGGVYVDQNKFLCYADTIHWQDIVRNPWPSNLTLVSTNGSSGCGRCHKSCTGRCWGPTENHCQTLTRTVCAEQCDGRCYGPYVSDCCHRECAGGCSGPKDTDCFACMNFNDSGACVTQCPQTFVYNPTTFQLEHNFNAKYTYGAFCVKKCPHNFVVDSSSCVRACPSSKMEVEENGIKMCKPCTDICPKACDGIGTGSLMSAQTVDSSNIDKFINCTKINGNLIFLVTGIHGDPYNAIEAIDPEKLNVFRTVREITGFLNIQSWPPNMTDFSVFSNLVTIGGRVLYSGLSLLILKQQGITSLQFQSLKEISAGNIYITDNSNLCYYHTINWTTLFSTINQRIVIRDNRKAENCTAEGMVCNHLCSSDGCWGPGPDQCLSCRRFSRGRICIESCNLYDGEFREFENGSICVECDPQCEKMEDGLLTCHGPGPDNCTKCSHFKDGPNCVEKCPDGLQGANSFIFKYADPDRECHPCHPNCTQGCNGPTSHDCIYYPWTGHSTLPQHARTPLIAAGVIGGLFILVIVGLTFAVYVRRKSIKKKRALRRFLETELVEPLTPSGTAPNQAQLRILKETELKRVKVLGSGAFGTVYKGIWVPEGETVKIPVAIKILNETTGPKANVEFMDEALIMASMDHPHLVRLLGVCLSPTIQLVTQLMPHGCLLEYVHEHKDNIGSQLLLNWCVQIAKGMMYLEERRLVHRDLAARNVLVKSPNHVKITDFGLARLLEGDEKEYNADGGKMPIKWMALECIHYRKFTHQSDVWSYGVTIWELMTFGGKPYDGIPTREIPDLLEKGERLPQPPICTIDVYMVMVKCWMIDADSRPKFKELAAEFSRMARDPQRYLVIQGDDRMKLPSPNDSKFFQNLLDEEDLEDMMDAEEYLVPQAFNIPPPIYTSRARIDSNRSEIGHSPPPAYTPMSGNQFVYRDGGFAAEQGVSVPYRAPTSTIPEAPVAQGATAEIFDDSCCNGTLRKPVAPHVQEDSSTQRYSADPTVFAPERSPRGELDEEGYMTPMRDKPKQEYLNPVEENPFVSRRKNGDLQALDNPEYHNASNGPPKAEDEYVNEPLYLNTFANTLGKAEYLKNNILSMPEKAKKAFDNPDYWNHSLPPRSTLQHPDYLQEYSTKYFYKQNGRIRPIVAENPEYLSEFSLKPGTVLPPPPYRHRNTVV

Assay [1] addresses GFP-tagged ErbB2 (ErbB2-GFP) (UniProt P04626). The experiment in a line: co-IP; HEK293E cells co-transfected, detached with Accutase, cultured 1 h in suspension, lysed; GFP-tagged ErbB2 construct immunoprecipitated with anti-GFP pAb; Western blotting.
For assay [2], the target named is endogenous nectin-4 (human (endogenous in SUM190-PT)) (UniProt Q96NY8). The experiment in a line: co-IP; SUM190-PT cells detached with Accutase, cultured 1 h in suspension, lysed; endogenous nectin-4 immunoprecipitated with anti-nectin-4 pAb; Western blotting.
Assay [3] deals with FLAG-tagged nectin-4 (FLAG-Nectin-4) (UniProt Q96NY8). Description: co-IP; HEK293E cells co-transfected, detached with Accutase, cultured 1 h in suspension, lysed; FLAG-tagged nectin-4 construct immunoprecipitated with anti-FLAG mAb; Western blotting.
In assay [4] the target is GFP-tagged ErbB2 (ErbB2-GFP) (UniProt P04626). The experiment in a line: pull-down; ErbB2-GFP captured from HEK293E lysate on anti-GFP pAb-conjugated beads and washed; incubated with 5 uM rec-FLAG-Nectin-4-Ig1/2/3 with or without 25 uM rec-FLAG-Nectin-4-Ig3 in lysis buffer, 20 ul, 4 °C, 16 h; washed with PBS, 0.02% Tween-20; Western blotting; both purified.

No constants are given. Whether binding was seen depends on the method and setting. For some of these results: Binding seen in cells or lysates may run through a third protein. Some results given as binding are weak or reduced against the parent protein; the word gives no strength.

On to “FLAG-tagged nectin-4 (FLAG-Nectin-4) (from UniProt Q96NY8 32-510)”, for which the binding entry in assay [1] is reported as “binds”.

For “endogenous ErbB2 (from UniProt P04626 23-1255) (receptor)”, the binding result in assay [2] was “binds”.

With “ErbB1-GFP (from UniProt P00533 25-1210) (receptor)”, the binding result in assay [3] is recorded as “no binding”.

Regarding “ErbB3-GFP (from UniProt P21860 20-1342) (receptor)”, in assay [3], the binding entry was “no binding”.

In the case of “GFP-tagged ErbB2 (ErbB2-GFP) (from UniProt P04626 23-1255) (receptor)”, the binding entry in assay [3] was “binds”.

Turning to “ErbB4-GFP (from UniProt Q15303 26-1308) (receptor)”, in assay [3], the binding entry is recorded as “no binding”.

With “Recombinant FLAG-tagged extracellular region of nectin-4 (rec-FLAG-Nectin-4-Ig1/2/3) (from UniProt Q96NY8 32-349) (domain or fragment)”, the binding result in assay [4] was “binds”.
